Test results taken from PubChem BioAssay AID1466 (National Center for Advancing Translational Sciences (NCATS), 2008).
About 10 (0.005%) of roughly 200,000 compounds were called active. The shares of active, inactive and inconclusive entries below differ from those in the screen. Calls come from the whole dose curve; as a rule, active = well fitted inhibition curve with a large enough effect; inconclusive = small, poorly fitted or top-dose-only effect, or effect the other way, or another doubt; inactive = no such curve, though single readings can be large or run the other way. No potency is given beside an inconclusive call; the fits are too rough.

The compounds below were run against Lysosomal alpha-glucosidase (Homo sapiens) (UniProt P10253) (assay: qHTS Assay for Inhibitors of Human alpha-Glucosidase as a Potential Chaperone Treatment of Pompe Disease). Settings: purified human GAA, 4-MU-alpha-glucoside fluorescence; activity change, negative = inhibition: at 76.9 µM (top of the series) unless noted.
Procedure, shortened: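 Endpoint fluorogenic read: 20 min room-temperature reaction of 4 nM human alpha-glucosidase with 400 uM 4-methylumbelliferyl-alpha-D-pyranoside, pH 5.0, quenched with 1M NaOH/1M glycine pH 10. AC50 from Hill modeling.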
Potency is the fitted concentration of half-maximal effect; tags give direction and shape of the fitted curve.
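Throughout, for activity change, negative = inhibition: plate controls were uninhibited enzyme wells for no effect and no-enzyme background for full effect.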

Row | SMILES | Potency | activity change, negative = inhibition
1 | Clc1cccc(CN2CCCCC2c2cccnc2)c1 (stereo unspecified) | inconclusive [inhibitor, full curve, poor fit] | 
2 | Cc1ccc(N=C2N=C(N)c3ccccc32)c(C)c1 | inconclusive [inhibitor, full curve] | 
3 | CCCCCCC1CC(C)(C(=O)CNc2nncs2)OC1=O (stereo unspecified) | inconclusive [inhibitor, single point] | 
4 | CCCCCSc1cc(OC)c(CCN(C)C)cc1OC | inconclusive [inhibitor, full curve, poor fit] | 
5 | Cc1cc(/C=C2/C(=O)NC(=O)N(Cc3ccco3)C2=O)c(C)n1-c1ccc(C(=O)O)cc1 | active: 31.6 µM | 
6 | CCOc1ccccc1-n1c(O)c(C=Nc2ccc(N(CC)CC)cc2)c(=O)[nH]c1=O | inconclusive [inhibitor, single point] | 
7 | CC(Oc1ccc(-c2ccccc2)cc1)C(=O)O (stereo unspecified) | inconclusive [inhibitor, single point] | 
8 | CCOP(=O)(OCC)C(Nc1cccc(C(F)(F)F)c1)c1ccc(Br)cc1 (stereo unspecified) | inconclusive [inhibitor, partial curve] | 
9 | CCCNc1oc(-c2cccc3ccccc23)nc1C#N | inconclusive [activator, partial curve] | 
10 | COc1ccc(CN2CCN(C(=O)Cc3ccccc3)CC2)c(OC)c1 | inconclusive [inhibitor, single point] | 
11 | CN(C)C(=O)Oc1ccc(-c2cn3cc(C(F)(F)F)ccc3n2)cc1 |  | inconclusive: -16% [inhibitor]
12 | C=CCN1C(=O)C2(C(C(=O)OCC)=C(N)Oc3c2c(=O)oc2ccccc32)c2ccccc21 (stereo unspecified) | inconclusive [inhibitor, single point] | 
13 | CCCCCn1c(=O)c(C(=O)NCc2ccco2)c(O)c2ccccc21 |  | inconclusive: -15.7% [inhibitor]
14 | CCCc1[nH]nc2c1C(c1ccc(OC)c(Cn3nnc4ccccc43)c1)C(C#N)=C(N)O2 (stereo unspecified) | inconclusive [inhibitor, full curve] | 
15 | CCCCCSc1cc(O)c(C(CNC)C(C)C)cc1OC (stereo unspecified) | inconclusive [inhibitor, single point] | 
16 | CN(C)CC1CSCCC1(O)c1ccc(C(F)(F)F)cc1 (stereo unspecified) | inconclusive [inhibitor, single point] | 
17 | O=P(/C(=N/O)N1CCOCC1)(N1CCOCC1)N1CCOCC1 | inconclusive [inhibitor, single point] | 
18 | Cc1cc(C)cc(NC(=O)Cn2c(=O)oc3cc(S(=O)(=O)N4CC(C)CC(C)C4)ccc32)c1 (stereo unspecified) | inconclusive [inhibitor, single point] | 
19 | CN1C(=O)CN=C(c2ccc(Cl)cc2)c2cc(Cl)ccc21 | inconclusive [inhibitor, single point] | 
20 | COc1ccc(C(=O)C2CN(C)CC2C(=O)c2ccc(OC)cc2)cc1 (stereo unspecified) | inconclusive [inhibitor, partial curve, poor fit] | 
21 | O=C(/C=C/c1c[nH]c2ccccc12)c1c(O)n(CCc2ccccc2)c(=O)[nH]c1=O | inconclusive [inhibitor, single point] | 

Row | SMILES | Potency | activity change, negative = inhibition
22 | CC1=CC(=Cc2sc3ccccc3[n+]2C)C=C(C)O1 | inconclusive [inhibitor, partial curve, poor fit] | 
23 | CCOC(=O)C1(CCc2ccccc2)CCN(Cc2ccc3c(c2)OCCO3)CC1 |  | inconclusive: 17% [activator]
24 | CN1CC(C(=O)c2ccc(Cl)cc2)C(c2ccc(N(C)C)cc2)C1 (stereo unspecified) | inconclusive [inhibitor, full curve, poor fit] | 
25 | COc1c(C)cc(C(=O)C2CCCN(Cc3cccc(C)n3)C2)cc1C (stereo unspecified) |  | inconclusive: 14.9% [activator]
26 | CCN1C(=O)/C(=C\c2ccc([N+](=O)[O-])s2)C(=O)NC1=S | inactive | 
27 | c1ccc(P(c2ccccn2)c2ccccn2)cc1 | inconclusive [inhibitor, single point] | 
28 | C=CCc1cc(C=C2C(=O)N(C)C(=O)N(C)C2=O)cc(OCC)c1OCc1ccccc1 | inconclusive [inhibitor, single point] | 
29 | CCN(CC)c1ccc(C=C2C(=O)NC(=S)NC2=O)cc1 | inconclusive [inhibitor, partial curve, poor fit] | 
30 | O=c1[nH]c(=O)n(Cc2ccco2)c(O)c1/C=N/N1CCCCC1 | inconclusive [inhibitor, single point] | 
31 | c1ccc2c(c1)CC1CNCc3cccc(c31)S2 (stereo unspecified) |  | inconclusive: -16% [inhibitor]
32 | CCCCCCn1c(O)c(C(C)=NC)c(=O)[nH]c1=O |  | inconclusive: -17.3% [inhibitor]
33 | CC(=O)N1CCN(c2ccc([N+](=O)[O-])cc2C=C2C(=O)NC(=O)NC2=O)CC1 | inconclusive [inhibitor, single point] | 
34 | O=c1[nH]c(=O)n(Cc2ccco2)c(O)c1/C=N/N1CCCCCC1 | inactive | 
35 | CC1CCCC(C)N1/N=C/c1c[nH]c2ccc(Br)cc12 (stereo unspecified) |  | inconclusive: -16.6% [inhibitor]
36 | COc1ccc(C(=O)C2CCCN(C3CSCCSC3)C2)c(C)c1 (stereo unspecified) |  | inconclusive: 2.8% [activator]
37 | CC1=CC(=C2C(=O)NC(=S)NC2=O)C=C(C(F)(F)F)N1CCc1ccccc1 |  | inconclusive: 8.18% [activator]
38 | CC(C)CNC(=O)c1c(N)n(Cc2ccco2)c2nc3ccccc3nc12 | inconclusive [activator, partial curve] | 
39 | COc1ccccc1CN1CCCCC1c1cccnc1 (stereo unspecified) | inconclusive [inhibitor, single point] | 
40 | COc1cccc(CNCCc2c[nH]c3ccccc23)c1OC | inconclusive [inhibitor, full curve, poor fit] | 
41 | Cc1cccc(N2C(=O)NC(=O)/C(=C\c3cc(C)n(-c4sc5c(c4C#N)CCCC5)c3C)C2=O)c1C | inconclusive [inhibitor, partial curve, poor fit] | 
